This is an account of results in ChEMBL document CHEMBL4888484, “Replenishing the malaria drug discovery pipeline: Screening and hit evaluation of the MMV Hit Generation Library 1 (HGL1) against asexual blood stage Plasmodium falciparum ,using a nano luciferase reporter read-out” (2022).

The whole screen tested about 150,000 compounds, of which about 540 (0.36%) showed an effect of 50% or more. Some of the results follow.

In the experiment the test system is Plasmodium falciparum. Put plainly: Primary screen in NF54 nanoGlo assay, in single point, at 2uM, 72h; a lower Z score goes with more inhibition. It is filed as functional, Erythrocyte. The settings on record: timepoint 72 hour.
As to `COc1cccc(C2=NO[C@H](c3nc(-c4ccncc4)no3)C2)c1`, the % Inhibition (in general, the relative decrease from the control value, in per cent) amounted to 10% and the Z score was -0.96.
In the case of `N#Cc1c(-c2ccncc2)cc(-c2cc(CC(=O)O)cs2)nc1N`, the “% Inhibition” value is -8% and the Z score came to 0.98.
For `COc1ccc2c(c1)CCc1cnc(-n3ncc(C(=O)N4CC[C@H](N(C)C)C4)c3C3CC3)nc1-2` the same measures were -3% and 0.52.
Take `Cc1cccc(CN2CCc3nc(N4CCC(C)CC4)ncc3C2)c1`: the “% Inhibition” value was -4% and the Z score came out at 0.52.
As to `C[C@@H](c1ccccc1F)N1CCC(C(=O)Nc2ncccn2)CC1`, the “% Inhibition” value is -3% and the Z score is listed as 0.41.
Regarding `CN(C)c1cccc(C(=O)N2CCC(N3C(=O)CNC3=O)CC2)c1`, the “% Inhibition” value is listed as -16% and the Z score is given as 2.96.
The matching figures for `Cc1ccc(Oc2c(CN(CC(O)COCC(C)C)CC3CCCO3)c(-c3ccccc3)nn2C)cc1` (centres undefined): -11% and 1.61.
`CCCC1(CNC(=O)[C@H]2CCCN(C3CCN(Cc4ccncc4)CC3)C2)CCC1`: the “% Inhibition” value was -16% and the Z score was 1.89.
Regarding `Cc1noc(C2(C)CCN(Cc3cncnc3)CC2)n1`, the “% Inhibition” value is -4% and the Z score was determined as 0.69.
Turning to `COc1ccc(C(=O)N[C@H]2CO[C@H]3[C@@H]2OC[C@@H]3Nc2nccc(-c3ccc(N(C)C)cc3)n2)cc1`, the “% Inhibition” value came to 14% and the Z score was -1.64.
With `Cc1ccn(C)c1C(=O)N(C)CCN(C)C(=O)c1c(C)ccn1C`, the “% Inhibition” value was -5% and the Z score is on record as 0.49.
As to `COC1CCCC1C1COCCN1S(=O)(=O)c1ccc(C(N)=O)cc1` (centres undefined), the “% Inhibition” value is recorded as -7% and the Z score is on record as 1.09.
As to `CC1CC(NC(=O)OC(C)(C)C)CCN1C(=O)OC(C)(C)C` (centres undefined), the “% Inhibition” value is listed as -5% and the Z score is given as 0.79.
On to `CCCC[C@H](CC)COCc1cccc(N)c1`, for which the “% Inhibition” value is on record as -15% and the Z score stood at 1.96.
As for `CNC(=O)[C@H](C)S(=O)(=O)c1cccc(OC)c1`, the “% Inhibition” value is reported as -2% and the Z score is listed as 0.25.
In the case of `Cc1noc(CO[C@H]2CCCN(C(=O)NCc3ccccc3)C2)n1`, the “% Inhibition” value is recorded as 6% and the Z score is recorded as -0.83.
On to `Cc1nnc(CNC(=O)C[C@H](C)c2cccc(C(F)(F)F)c2)n1C`, for which the “% Inhibition” value is on record as -9% and the Z score was found to be 1.62.
`C[C@@H]1CN(C[C@@H]2CN(C(=O)c3ccc4nccnc4c3)C[C@@H]2CO)C[C@H](C)O1`: the “% Inhibition” value is given as -12% and the Z score stood at 1.7.
The matching figures for `CN(C)C(=O)[C@]12CCS(=O)(=O)N(C)[C@@H]1CCN(C(=O)CCc1c[nH]c3ccccc13)C2`: 0% and -0.02.
For the compound `O=C(Nc1cc(Cl)ccc1OCC1CCC1)N1CCC(c2ccn[nH]2)CC1`, the “% Inhibition” value is reported as 5% and the Z score was -0.7.
As to `O=C(c1ccccc1)N(CCN1CCCC1)C1CCOCC1`, the “% Inhibition” value is on record as 2% and the Z score is -0.28.
In the case of `O=C(Nc1ccc2c(c1)OCO2)N1C[C@@H]2CC[C@H]1CNC2`, the “% Inhibition” value is 1% and the Z score is recorded as -0.2.
Take `Cc1cc(C(=O)NC[C@@]2(c3cnn(C)c3)CCCO2)ncn1`: the “% Inhibition” value is on record as -2% and the Z score is 0.19.
The matching figures for `CCc1cc(NC2CCOC2C)n(C)n1` (centres undefined): -20% and 2.03.
The matching figures for `CC1=C[C@@H](C)CN(S(=O)(=O)c2c(C)nn(C)c2C)C1`: -12% and 1.05.
`CN1CCCC(C(=O)NC2CCCc3ccccc32)C1` (centres undefined): the “% Inhibition” value is -9% and the Z score came to 0.8.
Turning to `CCc1ccc(-n2ccc3c(nnc4ncnn43)c2=O)cc1`, the “% Inhibition” value worked out at 2% and the Z score is reported as -0.35.
As to `CCc1cc(C#N)ccc1NC(=O)c1cccc(CN2CCNC(=O)C2)c1`, the “% Inhibition” value is reported as -5% and the Z score was 0.73.
As to `COc1ccc(-c2cccc(C(=O)N3CCC4(CCCC4)C3)c2)cc1C(C)=O`, the “% Inhibition” value was -3% and the Z score worked out at 0.55.
Turning to `O=C1CC[C@@]2(CCCN(C(=O)c3cccnc3)C2)CN1CCc1c[nH]cn1`, the “% Inhibition” value was -6% and the Z score worked out at 1.18.
`CN(C)c1ccccc1CN(CCC#N)C1CC1`: the “% Inhibition” value was -2% and the Z score amounted to 0.19.
For `Cc1c(Cl)cccc1NC(=O)CC(=O)N1CCC[C@H](CN2CCN(C)CC2)C1`, the “% Inhibition” value is -2% and the Z score stood at 0.39.
Consider `Cc1cc(NC(=O)c2cc(C3CC3)on2)ccc1N1CCCC1=O`, for which the “% Inhibition” value is 6% and the Z score was -0.89.
Consider `CC(=O)N1C[C@@H]2OC(=O)N(C3CCN(C(=O)c4ccc5cccnn45)CC3)[C@@H]2C1`, for which the “% Inhibition” value is on record as -10% and the Z score was 1.55.
For `CC(NCC(=O)Nc1ccncc1)C(C)n1cccn1` (centres undefined) the same measures were -9% and 1.25.
Consider `O=C(N1CCC[C@H](Oc2ccc(Cl)cn2)C1)C1(O)CCC1`, for which the “% Inhibition” value was -11% and the Z score was 1.48.
On to `C[C@H](NS(=O)(=O)c1ccc(Cl)s1)C(=O)NCc1cscn1`, for which the “% Inhibition” value was found to be 0% and the Z score is -0.01.
Turning to `COCCN(Cc1c(C(C)C)nn(-c2ccccc2)c1Oc1cccc(F)c1)C(=O)C1CCCC1`, the “% Inhibition” value is listed as 0% and the Z score is on record as 0.03.
On to `CCC(=O)N[C@@H](C)COc1ccccc1`, for which the “% Inhibition” value is -10% and the Z score is listed as 1.55.
For `CC(C)c1nc([C@@H](NC(=O)OC(C)(C)C)C2CC2)no1` the same measures were -15% and 2.83.
Take `CCn1ncc(C(=O)N2CC[C@@]3(O)CCCC[C@H]3C2)c1C`: the “% Inhibition” value amounted to 14% and the Z score is recorded as -1.81.
As to `CCCc1n[nH]cc1C(=O)N1C[C@@H]2[C@@H]3CC[C@@H](C3)[C@@H]2C1`, the “% Inhibition” value is recorded as -26% and the Z score was determined as 3.38.
